# Laboratory results as given in the supplement of paper PMC8728848.
# Some of the results follow.
# Columns and labels:
# Assay in all cases: glycan array binding signal (z-score within array); higher = stronger binding
# Conditions in all cases: glycan notation: IUPAC condensed, linker removed
# [1] = molecular target: Gal(b1-4)GlcNAc(b1-3)GalNAc
# Method in brief: (§1)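 Negative Z-scores can be read as non-binding. The Z-score is calculated within each array and then averaged across arrays of one protein sequence at different concentrations or buffers and across linkers. Arrays, 3228 in all, were curated from the Consortium for Functional Glycomics database and kept only where the protein sequence was available.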
# [2] = molecular target: Gal(b1-4)GlcNAc(b1-3)[Gal(b1-4)GlcNAc(b1-6)]GalNAc
# Method in brief: as §1
# [3] = molecular target: Gal(b1-4)GlcNAc(b1-6)Gal(b1-4)GlcNAc(b1-6)GalNAc
# Method in brief: as §1
# [4] = molecular target: Gal(b1-4)GlcNAc(b1-6)GalNAc
# Method in brief: as §1
# [5] = molecular target: Gal(b1-4)GlcNAc(b1-6)[Gal(b1-3)]GalNAc
# Method in brief: as §1
# Gal3S(b1-3)GalNAc = molecular target: Gal3S(b1-3)GalNAc
# Method in brief: as §1
# Gal3S(b1-3)GlcNAc = molecular target: Gal3S(b1-3)GlcNAc
# Method in brief: as §1
# [6] = molecular target: Gal3S(b1-3)[Fuc(a1-4)]GlcNAc
# Method in brief: as §1
# Gal3S(b1-4)Glc = molecular target: Gal3S(b1-4)Glc
# Method in brief: as §1
# Gal3S(b1-4)Glc6S = molecular target: Gal3S(b1-4)Glc6S
# Method in brief: as §1
# Gal3S(b1-4)GlcNAc = molecular target: Gal3S(b1-4)GlcNAc
# Method in brief: as §1
# Gal3S(b1-4)GlcNAc6S = molecular target: Gal3S(b1-4)GlcNAc6S
# Method in brief: as §1
# Gal3S6S(b1-4)GlcNAc = molecular target: Gal3S6S(b1-4)GlcNAc
# Method in brief: as §1
# Gal3S6S(b1-4)GlcNAc6S = molecular target: Gal3S6S(b1-4)GlcNAc6S
# Method in brief: as §1
# Gal4S(b1-4)GlcNAc = molecular target: Gal4S(b1-4)GlcNAc
# Method in brief: as §1
# Gal4S6S(b1-4)GlcNAc = molecular target: Gal4S6S(b1-4)GlcNAc
# Method in brief: as §1
# Gal6S(b1-4)Glc = molecular target: Gal6S(b1-4)Glc
# Method in brief: as §1
# Gal6S(b1-4)Glc6S = molecular target: Gal6S(b1-4)Glc6S
# Method in brief: as §1
# Gal6S(b1-4)GlcNAc = molecular target: Gal6S(b1-4)GlcNAc
# Method in brief: as §1
# GalNAc(a1-3)Gal = molecular target: GalNAc(a1-3)Gal
# Method in brief: as §1
# GalNAc(a1-3)GalNAc = molecular target: GalNAc(a1-3)GalNAc
# Method in brief: as §1
# [7] = molecular target: GalNAc(b1-3)Gal(a1-4)Gal(b1-4)GlcNAc
# Method in brief: as §1
# GalNAc(b1-3)GalNAc = molecular target: GalNAc(b1-3)GalNAc
# Method in brief: as §1
# GalNAc(b1-4)GlcNAc = molecular target: GalNAc(b1-4)GlcNAc
# Method in brief: as §1
# Glc(a1-4)Glc = molecular target: Glc(a1-4)Glc
# Method in brief: as §1
# Glc(a1-6)Glc(a1-6)Glc = molecular target: Glc(a1-6)Glc(a1-6)Glc
# Method in brief: as §1
# Glc(b1-4)Glc = molecular target: Glc(b1-4)Glc
# Method in brief: as §1
# Glc(b1-6)Glc = molecular target: Glc(b1-6)Glc
# Method in brief: as §1
# GlcA(b1-3)Gal = molecular target: GlcA(b1-3)Gal
# Method in brief: as §1
# GlcA(b1-6)Gal = molecular target: GlcA(b1-6)Gal
# Method in brief: as §1
# [8] = molecular target: GlcNAc(a1-3)Gal(b1-4)GlcNAc
# Method in brief: as §1
# [9] = molecular target: GlcNAc(a1-6)Gal(b1-4)GlcNAc
# Method in brief: as §1
# [10] = molecular target: GlcNAc(b1-2)Gal(b1-3)GalNAc
# Method in brief: as §1
# [11] = molecular target: GlcNAc(b1-2)Man(a1-3)[GlcNAc(b1-2)Man(a1-6)]Man(b1-4)GlcNAc(b1-4)GlcNAc
# Method in brief: as §1
# GlcNAc(b1-3)Gal = molecular target: GlcNAc(b1-3)Gal
# Method in brief: as §1
# [12] = molecular target: GlcNAc(b1-3)Gal(b1-3)GalNAc
# Method in brief: as §1
# GlcNAc(b1-3)Gal(b1-4)Glc = molecular target: GlcNAc(b1-3)Gal(b1-4)Glc
# Method in brief: as §1
binder,measurement,setting,value
"F17eG (Escherichia coli), Q9RH92 (protein) MTNFYKVFLAVFILVCCNISHAAVSFIGSTENDVGPSQSSYSRTHAMDNLPFVYNTGYNIGYQNANVWRISGGFCVGLDGKVDLPVVGSLDGQSIYGLTEEVGLLIWMGDTNYSRGTAMSGNSWENVFSGWCVGNYVSTQGLSVHVRPVILKRNSSAQYSVQKTSIGSIRMRPYNGSSAGSVQTTVNFSLNPFTLNDTVTSCRLLTPSAVNVSLAAISAGQLPSSGDEVVAGTTSLKLQCDAGVTVWATLTDATTPSNRSDILTLTGASTATGVGLRIYKNTDSTPLKFGPDSPVKGNENQWQLSTGTETSPSVRLYVKYVNTGEGINPGTVNGISTFTFSYQ",glycan array binding signal (z-score),[1],-0.312
same,glycan array binding signal (z-score),[2],-0.313
same,glycan array binding signal (z-score),[3],-0.316
same,glycan array binding signal (z-score),[4],-0.219
same,glycan array binding signal (z-score),[5],-0.31
same,glycan array binding signal (z-score),Gal3S(b1-3)GalNAc,-0.13
same,glycan array binding signal (z-score),Gal3S(b1-3)GlcNAc,-0.314
same,glycan array binding signal (z-score),[6],-0.288
same,glycan array binding signal (z-score),Gal3S(b1-4)Glc,-0.145
same,glycan array binding signal (z-score),Gal3S(b1-4)Glc6S,-0.314
same,glycan array binding signal (z-score),Gal3S(b1-4)GlcNAc,-0.259
same,glycan array binding signal (z-score),Gal3S(b1-4)GlcNAc6S,-0.301
same,glycan array binding signal (z-score),Gal3S6S(b1-4)GlcNAc,-0.31
same,glycan array binding signal (z-score),Gal3S6S(b1-4)GlcNAc6S,0.073
same,glycan array binding signal (z-score),Gal4S(b1-4)GlcNAc,-0.172
same,glycan array binding signal (z-score),Gal4S6S(b1-4)GlcNAc,-0.216
same,glycan array binding signal (z-score),Gal6S(b1-4)Glc,-0.291
same,glycan array binding signal (z-score),Gal6S(b1-4)Glc6S,-0.31
same,glycan array binding signal (z-score),Gal6S(b1-4)GlcNAc,-0.271
same,glycan array binding signal (z-score),GalNAc(a1-3)Gal,-0.298
same,glycan array binding signal (z-score),GalNAc(a1-3)GalNAc,-0.311
same,glycan array binding signal (z-score),[7],-0.303
same,glycan array binding signal (z-score),GalNAc(b1-3)GalNAc,4.3
same,glycan array binding signal (z-score),GalNAc(b1-4)GlcNAc,-0.295
same,glycan array binding signal (z-score),Glc(a1-4)Glc,-0.305
same,glycan array binding signal (z-score),Glc(a1-6)Glc(a1-6)Glc,-0.306
same,glycan array binding signal (z-score),Glc(b1-4)Glc,-0.309
same,glycan array binding signal (z-score),Glc(b1-6)Glc,-0.31
same,glycan array binding signal (z-score),GlcA(b1-3)Gal,-0.311
same,glycan array binding signal (z-score),GlcA(b1-6)Gal,-0.308
same,glycan array binding signal (z-score),[8],-0.28
same,glycan array binding signal (z-score),[9],-0.308
same,glycan array binding signal (z-score),[10],-0.292
same,glycan array binding signal (z-score),[11],-0.304
same,glycan array binding signal (z-score),GlcNAc(b1-3)Gal,3.21
same,glycan array binding signal (z-score),[12],4.04
same,glycan array binding signal (z-score),GlcNAc(b1-3)Gal(b1-4)Glc,4.59
